Measurements: US20040197268A1, “Method of imaging amyloid deposits using substituted rhodanine derivatives” (priority 1999, published 2004)
Certain results were filed several times, with different values. Only these are listed. The source may hold further records. Values given together seem to repeat one measurement (runs, samples, wells or individuals).

Molecular target: T1, Aβ(1-40) (Homo sapiens, UniProt P05067)
T1 construct: Soluble Aβ(1-40) peptide (Bachem, Torrance, Calif.); purchased Bachem, Torrance, Calif
Experiment: BASST (Beta-Amyloid Self-Seeding, ThioflavinT), inhibitors of self-seeded amyloid fibril growth
Format: biochemical
Details: 30 μM soluble Aβ(1-40), pH 7.5, 37° C., 3 to 5 hours, thioflavin T fluorescence
Method: BASST (Beta-Amyloid Self-Seeding, ThioflavinT)
An assay for inhibitors of self-seeded amyloid fibril growth
Assay Buffer—50 mM sodium phosphate, pH 7.5, 100 mM NaCl, 0.02% NaN3, 1 M urea (filter and store at 4° C.).
Soluble Aβ(1-40)—2.2 mg/mL in deionized H2O (store in aliquots at −20° C., keep on ice when thawed) will self-seed after 1 week storage. Typically, the solution should be stored until no lag phase is seen in the assay.
Final assay conditions: 30 μM soluble Aβ(1-40) in deionized water in assay buffer. Compound to be tested is dissolved in DMSO, typically 5-50 mM stock, such that the final concentration of DMSO is <1% v/v in the assay.
Assay: Reaction mixture for 50 assays (on ice) comprised of 1 μL of soluble Aβ(1-40)+13.5 μL assay buffer per assay. The following are the amounts of the components of the reaction mixture that result in each of the 50 assay wells.
1) Prepare the reaction mix above by mixing the components and storing on ice.
2) Pipet […] of reaction mixture into each of 50 wells of a polystyrene U-bottom 96-well microtiter plate (Corning 25881-96) on ice. […]
6) Remove the aluminum film and add 250 μL/well of 5 μM thioflavin T (ThT) [T-3516, Sigma-Aldrich] in 50 mM glycine-NaOH, pH 8.5. Read fluorescence on a plate reader (ex=440 nm/20 nm; em=485 nm/20 nm) within 5 minutes.

T1 sequence (P05067 672-711 limits assumed): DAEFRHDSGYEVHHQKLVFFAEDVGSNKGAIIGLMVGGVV

IC50: 500 nM and 10 µM [one cell]
SMILES: CCCCN(CCCC)c1ccc(/C=C2\SC(=S)N(CCS(=O)(=O)NC(=O)c3ccc(F)cc3)C2=O)cc1 [Example 26, (Z) 2-[5-(4-Dibutylamino-benzytidene)-4-oxo-2-thioxo-thiazolidin-3-yl]-ethanesulfonic acid 4-fluoro-benzoylamide]
